Assay results reported in PubChem BioAssay AID1159614 (National Center for Advancing Translational Sciences (NCATS), 2016).
In all, about 45,000 compounds went through this assay and about 65 (0.1%) were called active. The call rests on the fitted dose curve; in most records, active means well fitted activation curve with a large enough effect; inconclusive means small, poorly fitted or top-dose-only effect; inactive means no such curve, though single readings can be large or run the other way. Some of the results follow.

Molecular target: Galactocerebrosidase (Homo sapiens) (UniProt P54803)
Assay: A Novel Cell-Based Assay to Identify Small Molecules for B -Galactocerebrosidase; further: 0% is about no effect; nearly all actives have a fitted effect of over 65% in size
Details: 145M-Twi-hGALC-G270D cells (Twitcher mouse brain line with human GALC G270D), HMU-beta-Gal fluorescence, 48 h; series mostly up to 57.5 µM; activation: at the top concentration
Outline: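 Mutant human GALC (G270D), stably expressed in a Twitcher mouse brain cell line lacking endogenous GALC, is measured in live-treated cells via 6-hexadecanoylamino-4-methylumbelliferyl-β-galactoside hydrolysis (0.1 mM final, pH 5.2) with fluorescent detection.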

Sequence of UniProt P54803 (P54803 whole entry, looked up): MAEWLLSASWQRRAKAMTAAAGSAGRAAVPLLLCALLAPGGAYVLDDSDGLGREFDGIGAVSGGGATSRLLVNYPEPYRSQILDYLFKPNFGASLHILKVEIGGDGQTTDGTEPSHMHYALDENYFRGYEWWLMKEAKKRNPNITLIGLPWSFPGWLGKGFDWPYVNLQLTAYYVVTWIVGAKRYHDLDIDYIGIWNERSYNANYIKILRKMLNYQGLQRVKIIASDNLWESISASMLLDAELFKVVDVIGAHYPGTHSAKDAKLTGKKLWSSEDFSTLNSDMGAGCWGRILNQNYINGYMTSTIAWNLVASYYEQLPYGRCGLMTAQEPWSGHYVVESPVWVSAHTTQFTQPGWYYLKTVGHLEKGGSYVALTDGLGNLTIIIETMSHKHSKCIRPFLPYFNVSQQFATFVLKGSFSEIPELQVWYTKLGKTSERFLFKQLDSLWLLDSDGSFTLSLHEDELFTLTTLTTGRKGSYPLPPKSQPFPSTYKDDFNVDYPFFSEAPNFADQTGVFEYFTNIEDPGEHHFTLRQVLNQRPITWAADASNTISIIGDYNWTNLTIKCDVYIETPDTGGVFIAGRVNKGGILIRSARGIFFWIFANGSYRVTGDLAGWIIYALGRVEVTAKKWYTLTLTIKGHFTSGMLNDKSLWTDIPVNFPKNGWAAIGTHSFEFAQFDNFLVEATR

activation, inactive:
O=S(=O)(c1ccc2nc(N3CCN(c4ccccc4)CC3)ccc2c1)N1CCCCC1 -8.81%
COc1ccc(Nc2cc(C(=O)NCc3ccccc3)c3ccccc3n2)c(OC)c1 -14.7%
Cc1cccc(NC(=O)CSc2nc3c(oc4ccccc43)c(=O)n2-c2ccc(F)cc2)c1 -8.23%
COc1ccc2c(CNCCc3ccccc3)c(C(=O)O)n(Cc3cccc(F)c3)c2c1 -3.01%
Cc1ccc(NC(=O)CC(C)S(=O)(=O)c2ccc3c(c2)NC(=O)CO3)cc1C (stereo not given) -16.1%
CCOc1ccc(-c2cn3c(n2)sc2cc(C(=O)NC4CCCc5ccccc54)ccc23)cc1 (stereo not given) -12.1%
CSc1nnc2[nH]c(=O)cc(C)n12 -13.3%
Cc1cc(-c2ccc(S(=O)(=O)Nc3ccc(Br)c(C)c3)s2)on1 -6.81%
COc1ccc(CNC(=O)C2Cc3cc(S(=O)(=O)N4CCCCCC4)ccc3N2C(C)=O)cc1 (stereo not given) 0.483%
O=c1c2cnn(-c3ccc(F)cc3)c2ncn1Cc1ccc(F)cc1 -6.04%
Cc1cccc(NC(=O)Cc2ccc(-n3c(C)nc4cccnc43)cc2)c1C -3.61%
COc1ccc(Cl)cc1NC(=O)Cn1cc2c(n1)CCC(C)C2 (stereo not given) -11.9%
Cc1ccc(-c2nc(C)c(CCNC(=O)C(=O)Nc3ccc4c(c3)OCO4)s2)cc1 -17.9%
COc1ccc(CCN2C(=O)N(c3ccccc3)C(=O)C2CC(=O)Nc2ccccc2)cc1 (stereo not given) -9.81%
CC(=O)c1cccc(NC(=O)c2cc3nc(-c4ccc(Br)cc4)cc(C(F)(F)F)n3n2)c1 -2.91%
COc1ccc(CNC(=O)c2ccc(-c3nc(CSc4ccccc4)c(C)o3)cc2)c(OC)c1 -11.5%
CCc1ccc(NC(=O)c2cc3c([nH]c2=O)CC(C)(C)CC3=O)cc1 -8.54%
N#Cc1c[nH]n2c(NC3CCCCC3)c(-c3cccc(Cl)c3)nc12 -1.2%
CCOc1ccc2oc(=O)cc(CN3CCN(c4ccccc4)CC3)c2c1 1.18%
COc1cc(C(=O)N2CC(=O)Nc3ccc(C)cc3C2c2ccc(F)cc2)cc(OC)c1OC (stereo not given) 1.96%
Cc1nc(N2CCOCC2)c2c(C(=O)N3CCN(c4cccc(C)c4C)CC3)c(C)oc2n1 -3.48%
CCCN1C(=O)C2(c3ccccc31)c1c(oc3ccc(C)cc3c1=O)C(=O)N2CCOC (stereo not given) -13.5%
CCOC(=O)C1CCN(CCC(=O)Nc2ccc(OC)cc2)CC1 -10.9%
COc1ccc(Nc2cc(C)c3cc(NC(=O)c4cc(OC)cc(OC)c4)ccc3n2)cc1 -8.5%
Cc1ccc(C)c(NC(=O)NCc2ccc3c(c2)CCN3C(=O)c2ccccc2)c1 -20.2%
Cc1cc(C)c(NC(=O)CCC(=O)N2Cc3ccccc3Oc3ncccc32)c(C)c1 -11.8%
COC(=O)c1ccccc1NC(=O)Cn1c(=O)n(CCCC(=O)NCCc2ccc(OC)c(OC)c2)c(=O)c2ccccc21 -7.39%
CCCOc1ccc(C2c3c(oc4ccccc4c3=O)C(=O)N2c2nc(C)c(C(=O)OCC)s2)cc1 (stereo not given) -13.4%
COc1ccc(S(=O)(=O)NCc2ccc(C(=O)NCc3ccccc3)cc2)cc1 -15.9%
CC(C)c1ccc(NC(=O)C2(C)Cc3ccccc3C(=O)O2)cc1 (stereo not given) -9.17%
CC(=O)c1ccc(N2CCN(C(=O)c3ccc(Cn4c(=O)[nH]c5ccccc5c4=O)cc3)CC2)cc1 -4.22%
CCN1CCC(N(Cc2ccc(F)cc2)C(=O)Nc2cc(Cl)ccc2C(=O)OC)CC1 -8.88%
CC(C)C(NS(=O)(=O)c1cccc2cccnc12)C(=O)Nc1ccc(OC(F)(F)F)cc1 (stereo not given) -18.9%
Cc1ccc2c(c1)-c1c(cnn1CC(=O)N1CCN(c3cc(Cl)ccc3C)CC1)CO2 -5.11%
COc1ccc(-c2cc(C(F)(F)F)c(C#N)c(SCC(=O)Nc3ccccc3F)n2)cc1 -9.08%
CCC(C)Sc1c(C(C)C)cnc2c1c(=O)n(C)c(=O)n2C (stereo not given) -1.91%
COc1cccc(CN2C(=O)CN(C3CCCCC3)C(=O)C2c2ccc(OC)c(OC)c2)c1 (stereo not given) 1.18%
CCOc1ccc(CNC(=O)C2CCN(S(=O)(=O)c3cn(C)cn3)CC2)cc1OC -6.73%
COc1ccc(C2C=C(c3ccccc3)Nc3nc(NC(=O)/C=C/c4ccc(F)cc4)nn32)cc1 (stereo not given) -6.45%
COc1ccc2c(c1)c1c(c(=O)n(-c3ccccc3C)c(=O)n1CC(=O)N1CCCC1)n2C 28.3%
COc1ccccc1C(=O)Nc1ccc(OCc2cc(=O)n3ccc(C)cc3n2)cc1 -10.2%
COc1ccc(CNC(=O)c2cnn(-c3ccc(C)cc3)c2-n2cccc2)cc1OC -3.44%
COc1ccc(-n2c(/C=C/c3c(C)[nH]c4ccccc34)nc3ccccc3c2=O)cc1 12%
Cc1nn(C)c2c1c(-c1ccccc1)cc(=O)n2Cc1ccc(Cl)cc1 8.04%
COc1cccc(CNc2nccn(-c3ccc(OC)c(OC)c3)c2=O)c1 -7.95%
O=C(OCc1cccc(C(F)(F)F)c1)c1ccc(-c2nnn(Cc3ccc(F)cc3)n2)cc1 1.93%
CCn1c(=N)c(C(=O)NC2CCCC2)cc2c(=O)n3ccccc3nc21 -11.2%
CCN(C(=O)c1cn(-c2ccc(OC)cc2)c(=O)c2ccccc12)c1cccc(Cl)c1 6.24%
Cc1nn(C(=O)c2ccccc2)c(C)c1S(=O)(=O)N1CCCCCC1 36.1%
COc1ccc(C)cc1-n1c(-c2ccc(C)cc2)cc2c1CC(C)(C)CC2=O -20.3%
O=C(Cn1c2ncccc2c(=O)n1-c1ccccc1)Nc1ccc(Cl)cc1C(F)(F)F -20.2%
COCc1cc(C)nc2sc3c(c12)NC(c1ccc(O)cc1)N(c1ccc(C)cc1)C3=O (stereo not given) -7.73%
Cc1cccc(C(=O)Nc2ccc3oc(-c4ccncc4)nc3c2)c1 -23%
COc1ccc2c(c1)C=C(C(=O)NCc1cc(Br)ccc1OC)CO2 -1.33%
CCCCCn1cc2c(c1-c1ccc(Cl)cc1)c(=O)n(C)c(=O)n2C -23.3%
CCc1ccccc1NC(=O)c1sc(-n2nc(C)c(Cc3ccc4c(c3)OCO4)c2C)nc1C 9.56%
CCOC(=O)C1CCCN(S(=O)(=O)c2ccc3[nH]c(=O)oc3c2)C1 (stereo not given) -14%
COc1ccccc1NC(=O)c1sc2ncn(Cc3ccccc3Cl)c(=O)c2c1C -10.8%
CC(C)N1CCc2nc(SCC(=O)Nc3cccc(F)c3)[nH]c(=O)c2C1 -6.3%
COc1ccc(-c2nc3scc(CCNC(=O)c4cc(OC)cc(OC)c4)n3n2)cc1 -14.9%
